Experimental data reported in publication PMC4336329 (PLoS ONE, 2015).
About 14,000 (4.5%) of roughly 310,000 compounds showed an effect of 50% or more. The effect is printed as a negative number. Some of the results follow.

molecular target: human ether-à-go-go-related gene (hERG) potassium channel (human, UniProt Q12809); assay: primary screen, population patch clamp on CHO cells stably expressing hERG
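Also: peak tail current of the secondary pulse compared with the same well before compound.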

Chain of human ether-à-go-go-related gene (hERG) potassium channel (Q12809 whole entry, looked up): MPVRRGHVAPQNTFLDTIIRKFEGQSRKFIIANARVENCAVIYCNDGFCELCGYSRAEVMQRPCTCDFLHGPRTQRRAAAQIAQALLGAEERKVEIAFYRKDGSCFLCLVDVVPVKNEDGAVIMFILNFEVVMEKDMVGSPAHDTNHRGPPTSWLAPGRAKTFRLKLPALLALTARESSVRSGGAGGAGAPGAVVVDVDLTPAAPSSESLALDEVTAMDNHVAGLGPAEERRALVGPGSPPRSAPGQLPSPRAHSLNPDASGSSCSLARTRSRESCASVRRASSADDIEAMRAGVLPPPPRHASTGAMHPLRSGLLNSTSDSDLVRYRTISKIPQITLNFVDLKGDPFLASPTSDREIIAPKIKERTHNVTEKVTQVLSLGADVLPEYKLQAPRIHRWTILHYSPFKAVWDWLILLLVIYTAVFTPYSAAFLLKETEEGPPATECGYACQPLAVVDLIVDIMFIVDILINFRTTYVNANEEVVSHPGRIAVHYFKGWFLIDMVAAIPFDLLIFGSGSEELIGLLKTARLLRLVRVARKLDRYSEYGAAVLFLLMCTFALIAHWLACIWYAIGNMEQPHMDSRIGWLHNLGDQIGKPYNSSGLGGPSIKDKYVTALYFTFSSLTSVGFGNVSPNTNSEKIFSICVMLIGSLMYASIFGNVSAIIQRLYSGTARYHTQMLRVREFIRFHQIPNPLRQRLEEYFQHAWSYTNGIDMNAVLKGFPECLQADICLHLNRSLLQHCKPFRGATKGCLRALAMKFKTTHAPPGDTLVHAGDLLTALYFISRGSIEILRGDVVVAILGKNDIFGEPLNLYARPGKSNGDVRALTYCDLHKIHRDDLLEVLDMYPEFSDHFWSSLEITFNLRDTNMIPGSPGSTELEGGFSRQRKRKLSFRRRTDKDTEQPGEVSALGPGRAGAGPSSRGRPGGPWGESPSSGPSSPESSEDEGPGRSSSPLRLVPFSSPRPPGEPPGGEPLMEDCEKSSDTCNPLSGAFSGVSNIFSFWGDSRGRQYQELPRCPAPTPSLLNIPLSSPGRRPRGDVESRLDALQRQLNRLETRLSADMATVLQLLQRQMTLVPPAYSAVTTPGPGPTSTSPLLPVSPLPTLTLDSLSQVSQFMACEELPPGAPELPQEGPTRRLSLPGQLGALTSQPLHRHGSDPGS

Row | Structure (SMILES) | hERG current change (%, negative = inhibition) at 10uM [%]
1 | CCCCOC(=O)c1ccc(NC(=O)C2CCCO2)cc1 (stereo not drawn) | -6.66
2 | O=C(NCCN1CCOCC1)c1cc(-c2ccccc2Cl)nc2ccccc12 | -15
3 | COC(=O)c1cc(CNC(=O)c2cccc(Cl)c2)ccc1OC | -23.9
4 | COC(=O)c1cc(COc2ccc3c(c2)oc(=O)c2ccccc23)c(C)o1 | -18.4
5 | Cc1cccc(C(=O)Nc2nnc(S(=O)(=O)N3CCCCCC3)s2)c1 | -2.86
6 | CCSc1nc2sc3c(c2c2nnc(SCC(=O)NCc4ccco4)n12)CCCC3 | -9.16
7 | CCOC(=O)C1=C(c2ccccc2)NC(SC)=C(C#N)C1c1ccco1 (stereo not drawn) | -21.4
8 | COC(=O)c1cn(-c2ccc(Cl)cc2)c(=O)c2ccccc12 | -12.9
9 | COc1ccccc1NC(=O)c1ccc(C(=O)c2ccccc2)o1 | -69.4
10 | O=C(C[N+]1(CC#Cc2ccccc2)CCCCC1)c1ccc(Cl)cc1.[Br-] | -31.2
11 | CS(=O)(=O)c1ccc(Cl)c(NC(=O)COC(=O)C23CC4CC(CC(C4)C2)C3)c1 | -6.48
12 | Cc1cccc2sc(N(CCCN(C)C)C(=O)c3sc4ccccc4c3Cl)nc12.Cl | -13.5
13 | COc1ccc(OC)c(NC(=O)c2cc(-c3c(C)cc(C)cc3O)n[nH]2)c1 | 36.6
14 | O=S(=O)(Nc1ccc(Br)cc1)c1cccc(NC(=S)NCCN2CCOCC2)c1 | 3.16
15 | CC(C)Cc1ccc(CN2CCCC(NC(=O)c3ccoc3)C2)cc1 (stereo not drawn) | -70.9
16 | CCCCn1nnnc1SCC(=O)NCc1ccccc1 | 1.07
17 | COc1ccc(Cl)cc1C(=O)NNC(=S)NC(=O)c1ccc(F)c(F)c1 | 21
18 | O=C(O)c1ccc(/C=C2\SC(=S)N(NC(=O)c3ccccc3[N+](=O)[O-])C2=O)cc1 | 12.4
19 | CCc1cc(=O)oc2cc(C)cc(OC(=O)c3ccco3)c12 | 2.73
20 | c1ccc(-c2ccnc3nc(-n4cccc4)nn23)cc1 | 20
21 | Cc1cc(-c2nnc(SCC(=O)Nc3cccc(F)c3)n2N)n[nH]1 | 6.38
22 | COc1ccc(NC(=O)CN2CCN(c3ccccc3)CC2)cc1 | 1.85

Row | Structure (SMILES) | hERG current change (%, negative = inhibition) at 10uM [%]
23 | CCSc1nc(C)nc2sc(C)c(C)c12 | 14.7
24 | CC(=O)N1CCN(S(=O)(=O)c2ccc(C)cc2)C1C (stereo not drawn) | 5.41
25 | Cc1ccccc1OCC(O)CNC1CCCC1.Cl (stereo not drawn) | 4.67
26 | CC1(c2nnc(-c3cccc(Cl)c3)o2)CC(c2ccc(Cl)cc2)=NO1 (stereo not drawn) | 8.43
27 | Cc1c(CCC(=O)O)c(=O)oc2cc(OCc3ccc(Br)cc3)ccc12 | 22.2
28 | CCOC(=O)Cc1[nH]nc2c1C(c1cccc(OC)c1OC)C(C#N)=C(N)O2 (stereo not drawn) | -0.21
29 | Cc1occc1C(=O)N1CCCC(Nc2ccc(C(C)C)cc2)C1 (stereo not drawn) | -21.1
30 | Cc1noc(/C=C/c2ccco2)c1S(=O)(=O)N1CCC(C(=O)NCc2ccco2)CC1 | -30.1
31 | COc1ccc(/C=N/N2CCOCC2)cc1COc1ccc(Cl)cc1 | 3.02
32 | O=C(Nc1ccccc1N1CCOCC1)c1ccccc1NS(=O)(=O)c1ccc(F)c(F)c1 | -26.5
33 | O=C(O)c1ccccn1 | 3.29
34 | O=C(NCC(=O)N1CCN(c2ncccn2)CC1)c1ccc(F)cc1 | -16.6
35 | CCc1cccc(C)c1NC(=O)CSc1nnc(Cc2csc(C)n2)o1 | -4.21
36 | COc1ccc(Cc2nnc(NC(=O)CSc3ccccc3)s2)cc1 | 1.93
37 | COc1ccc(-n2cc3c(-c4cccc(Br)c4)nnc(C)c3n2)cc1 | 25.8
38 | CCCCN(C(=O)C1CC(=O)N(c2ccc(OC)cc2OC)C1)c1c(N)n(CC(C)C)c(=O)[nH]c1=O (stereo not drawn) | 17.1
39 | Cn1c(CNc2nc3ccccc3n2C)nc2ccccc21 | -15.2
40 | O=C(NC1CCCCCC1)C1C2C=CC3(CN(Cc4cccnc4)C(=O)C13)O2 (stereo not drawn) | -2.3
41 | O/N=C/c1ccccc1OCc1ccc(Cl)cc1 | 5.5
42 | Cc1ccc(NC(=O)CCN2C(=O)NC3(CCCC3)C2=O)cc1S(=O)(=O)N1CCOCC1 | -11.9
43 | Cc1cc(C)nc(NC2=NCC(=O)N2c2ccccc2Br)n1 | 8.96
44 | COC(=O)[C@]12C(=O)C(C)=C(O)[C@@]1(C)C(C)=CC1[C@@]34CC[C@@H](OC(C)=O)C(C)(C)C3C(C[C@]12C)OC4=O (stereo partly drawn) | 5.03

Row | Structure (SMILES) | hERG current change (%, negative = inhibition) at 10uM [%]
45 | CC(=O)NC12CC3CC(C1)CC(C(=O)N1CCN(S(=O)(=O)c4ccc(Cl)s4)CC1)(C3)C2 | -24.1
46 | CCOC(=O)C(/C=N/c1cc(C)nn1-c1ccccc1)=C(\C)O | 11.8
47 | Cc1ccc(S(=O)(=O)N(C)C)cc1NC(=O)C1CCC1 | 12.2
48 | Cc1ccn2cc(C(=O)N3CCCC(Nc4ccc(F)cc4)C3)nc2c1 (stereo not drawn) | 3.02
49 | CN1CCN(c2nc3c(c(=O)n(C)c(=O)n3C)n2CCSc2nc3ccccc3s2)CC1 | 0.984
50 | Cc1ccc(CSc2nnc(-c3cccnc3)n2N)cc1 | 18
51 | Cc1ccc(NC(=O)C2CC(c3ccc(F)cc3)=NO2)cc1 (stereo not drawn) | 17.6
52 | C=CCOc1ccc(/C=N/NC(=O)c2cc3c(OC)cc(OC)cc3[nH]2)cc1 | 19.6
53 | C/C=C/c1ccc(OCCOc2cc(C=O)ccc2OC)c(OC)c1 | 5.07
54 | COc1ccc(N(CC(=O)N2CCCCCC2)S(C)(=O)=O)cc1Cl | 8.46
55 | Cc1ccc(S(=O)(=O)Cc2ccc(C(=O)OCc3ccccc3)cc2)cc1 | -8.39
56 | Br.CCN1CCN(CC(=O)c2ccc(OC)cc2)CC1 | -2.05
57 | O=C(CSc1cccc[n+]1[O-])Nc1ccc(C(F)(F)F)cc1[N+](=O)[O-] | 4.31
58 | CCCn1c(=O)c(C(=O)Nc2ccccc2C(=O)OC)c(O)c2ccccc21 | 5.91
59 | O=C(NS(=O)(=O)Oc1cccc(Cl)c1Cl)OC[C@@H]1CCCN2CCCCC12 (stereo partly drawn) | 15.3
60 | CC(C)[C@H](NC(=O)c1ccco1)C(=O)OCC(=O)Nc1cccc(F)c1 | -23.8
61 | CCc1onc(C)c1C(=O)Nc1cc(C)ccc1OC | 5.17
62 | Cc1ccc(-n2c(SCC(=O)NCc3ccco3)nc3c([nH]c4ccccc43)c2=O)cc1 | 7.27
63 | O=C(CN1CCC(O)(c2ccc(F)cc2)CC1)NCc1ccc(F)cc1 | -34.2
64 | COc1ccccc1OCC(=O)NCC1CCCCC1 | -11
65 | O=C(Nc1ccncc1)c1ccc(Cl)c(S(=O)(=O)N2CCCC2)c1 | -42.3
66 | COc1ccccc1NC(=O)NC1(C(=O)N2CCCCC2)CCCCC1 | 10.8

Row | Structure (SMILES) | hERG current change (%, negative = inhibition) at 10uM [%]
67 | Cc1c(C2C(C#N)=C(N)OC3=C2C(=O)CCC3)cnn1C (stereo not drawn) | 23.2
68 | CCCCc1cc(=O)oc2cc(OCC(=O)NC3CCN(Cc4ccccc4)CC3)ccc12 | -61.1
69 | COc1ccc(N2CC(C(=O)N[C@@H](C)C(=O)NC3CCCCC3)CC2=O)cc1 (stereo partly drawn) | 25.2
70 | c1ccc(-c2nc3ccccc3c3nc4ccccc4n23)cc1 | -5.59
71 | O=C(CCC(=O)c1cccs1)NCC(=O)Nc1ccc(F)c(F)c1F | 5.26
72 | COc1cc(NC(=O)c2cccs2)c(OC)cc1NC(=O)Nc1ccc(F)cc1 | 13.4
73 | COc1cc(C(=O)N2CCC(N3CCCCCC3)CC2)cc(OC)c1OC.O=C(O)C(=O)O | -2.57
74 | O=C(CCN1C(=O)c2ccc([N+](=O)[O-])cc2C1=O)Nc1ccc(O)cc1C(=O)O | 75.4
75 | COc1ccc(NC(=O)C2CCCN(S(C)(=O)=O)C2)cc1 (stereo not drawn) | 24.5
76 | COc1cc(C(=O)NC(=S)NC(C)C)cc(OC)c1OC | -17.3
77 | Cc1ccc(NC(=O)c2cnccn2)cc1S(=O)(=O)N(C)C | 10.5
78 | Cc1cccc(NS(=O)(=O)c2cccs2)n1 | 14.8
79 | Cc1ccc(NC(=S)N(Cc2cccc(Br)c2)CC2CCC(C(=O)O)CC2)cc1Cl (stereo not drawn) | -1.2
80 | CN(C)CCN(CC1CCCN(Cc2ccccc2F)C1)C(=O)Cc1ccccc1F (stereo not drawn) | -0.047
81 | COc1ccccc1NC(=O)Cc1nnc(SCC(=O)c2ccccc2)n1C | 16
82 | COC(=O)C1=C(C)N(C)C(C)=C(C(=O)OC)C1c1cccc(Br)c1 | -13.4
83 | CCN1CCN(CCCNC(=O)c2ccc(/C=C3/Sc4ccccc4N(Cc4ccccc4F)C3=O)cc2)CC1 | -19.9
84 | CCC(C(=O)NCCN1CCOCC1)n1c2ccccc2c2nc(=O)cc(C)n21 (stereo not drawn) | 23.1
85 | COc1ccc(CCNC(=O)COc2ccc(N(C)S(=O)(=O)c3ccc(C)cc3)cc2)cc1OC | -38.1
86 | O=C(COC(=O)c1ccccc1)NC12CC3CC(CC(C3)C1)C2 | 9.72
87 | CC(C)(C)SCCNS(=O)(=O)c1ccc(C#N)cc1 | -3.24
